Test results from PubChem BioAssay AID1461 (National Center for Advancing Translational Sciences (NCATS), 2008).
The whole screen tested about 220,000 compounds, of which about 2,300 (1%) were called active. Inconclusive results, whose numbers are uncertain, are shown with a selection of clear calls. The call rests on the fitted dose curve; in most records, active means well fitted inhibition curve with a large enough effect; inconclusive means small, poorly fitted or top-dose-only effect, or effect the other way; inactive means no such curve, though single readings can be large or run the other way. Potencies of inconclusive entries are left out as doubtful fits.

Target: Neuropeptide S receptor (Homo sapiens) (UniProt Q6W5P4)
Sequence of UniProt Q6W5P4 (Q6W5P4 whole entry, looked up): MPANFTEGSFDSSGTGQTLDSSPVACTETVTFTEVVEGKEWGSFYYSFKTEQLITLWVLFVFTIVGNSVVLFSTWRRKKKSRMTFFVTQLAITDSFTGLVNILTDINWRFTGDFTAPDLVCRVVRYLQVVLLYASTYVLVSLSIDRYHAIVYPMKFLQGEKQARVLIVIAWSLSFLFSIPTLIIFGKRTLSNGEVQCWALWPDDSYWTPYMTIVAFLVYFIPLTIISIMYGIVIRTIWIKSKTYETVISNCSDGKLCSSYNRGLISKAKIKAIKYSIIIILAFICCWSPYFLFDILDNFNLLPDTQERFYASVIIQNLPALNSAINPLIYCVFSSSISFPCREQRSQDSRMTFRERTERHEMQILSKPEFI
Experiment: qHTS Assay for Antagonists of the Neuropeptide S Receptor: cAMP Signal Transduction; further: nearly all actives have a fitted effect of over 50% in size
Conditions: CHO-NPSR cells, cAMP TR-FRET, antagonist mode; activity change, negative = inhibition: at 38.3 µM (top of the series) unless noted
On the % scale 0 is the no-effect control and ±100 the full control effect; potency means the concentration at half of the fitted maximal effect; tags describe the fitted curve by direction and shape.

Row | Structure (SMILES) | Potency | activity change, negative = inhibition
1 | O=C(COc1cc(Cl)c(Cl)cc1Cl)NC(=O)NC1CCCC1 | inconclusive [inhibitor, single point] | 
2 | Cc1ccc(-c2cc(C(=O)N/N=C/c3cccnc3)n[nH]2)o1 |  | inactive: 0.828%
3 | Cc1cccc(C)c1NC(=S)N(c1ccccc1)C(C)C |  | inactive: -6.66%
4 | CC1(C)C(C=C(Cl)Cl)C1C(=O)Nc1ccc([N+](=O)[O-])cc1 (stereo not given) | inconclusive [inhibitor, single point] | 
5 | N#Cc1c(-c2ccccc2)c(-c2ccccc2)n(Cc2ccco2)c1NC(=O)c1cccs1 | inconclusive [inhibitor, single point] | 
6 | O=C(Oc1ccc(F)cc1C(=O)/C=C/c1cccs1)c1cccc([N+](=O)[O-])c1 | inconclusive [activator, full curve, poor fit] | 
7 | O=C(O)c1ccc2c3c(cccc13)C(=O)N(c1ccccc1)C2=O |  | inactive: -0.492%
8 | Cc1cc(C(=O)N/N=C/c2cc(Br)cc(Br)c2OC(=O)c2ccccc2)n[nH]1 |  | inactive: -53.2%
9 | CCC(=NCCc1c(C)[nH]c2ccc(OC(F)(F)F)cc12)C1=C(O)CC(c2ccccc2)CC1=O (stereo not given) | active: 10 µM | 
10 | C=CCn1c(O)c(C2=c3ccccc3=NC2=O)sc1=Nc1ccc(O)cc1 | inconclusive [inhibitor, single point] | 
11 | CC1=NN(Cc2ccccc2)C(=O)C1C(c1ccc(Cl)cc1)C(C#N)C#N (stereo not given) |  | inactive: -10.1%
12 | CN(C)/C(=N\O)c1c(Cl)cccc1Cl |  | inactive: -0.883%
13 | O=C1ON=C(c2ccc(Cl)cc2)/C1=C/c1ccc(O)cc1 | active: 6.31 µM | 
14 | Cc1ccc(S(=O)(=O)Nn2c(O)c(C=C3N=c4ccccc4=N3)sc2=S)cc1 | inconclusive [activator, partial curve] | 
15 | CC[n+]1c(C)n(C)c2cc(S(=O)(=O)N(C)C)ccc21 |  | inactive: 7.2%
16 | CC(C)(C)c1cc(Cl)c(O)c(NC(=S)NC(=O)c2cccnc2)c1 | inconclusive [activator, partial curve] | 
17 | COc1cccc(NC(=O)C(NCC2CCCCC2)c2ccccc2)c1 (stereo not given) | inconclusive [inhibitor, single point] | 
18 | COCCCNC(=O)CCCn1c(=O)[nH]c2ccccc2c1=O |  | inactive: 6.41% [at 46.1 µM]
19 | CN(C(=O)Nc1ccc(Cl)cc1Cl)[C@H]1c2cc(Br)ccc2OC[C@H]1CO | inconclusive [inhibitor, single point] | 
20 | O=C(NC1CCCC1)C(c1ccc(Cl)cc1)N(Cc1ccc(F)cc1)C(=O)CCl (stereo not given) | inconclusive [inhibitor, single point] | 
21 | O=C(C1=C(O)C(=O)N(CCc2ccccc2)C1c1cccnc1)c1ccco1 (stereo not given) | inconclusive [activator, partial curve] | 
22 | Cn1nnc(NC(=S)NC(=O)c2ccco2)n1 |  | inactive: 2.6% [at 46.1 µM]
23 | O=C1OC(Oc2ccccc2)(c2ccccc2)c2ccccc21 (stereo not given) | inconclusive [inhibitor, single point] | 
24 | Cc1ccc(-c2nn3c(C)nnc3c3ccccc23)cc1S(=O)(=O)NCc1ccccc1 | inconclusive [inhibitor, partial curve] | 

Row | Structure (SMILES) | Potency | activity change, negative = inhibition
25 | COc1ccc(/C=C/C(=O)NCc2cnn(C)c2C)cc1COc1ccc(Br)cc1 | inconclusive [inhibitor, single point] | 
26 | CC(C)(C)OC(=O)NCCc1n[nH]c(=S)o1 | inconclusive [activator, single point] | 
27 | CCN1C(=O)/C(=C/c2cn(C)nc2C)SC1=S |  | inactive: -3.51% [at 46.1 µM]
28 | COC(=O)c1c(NC(=O)/C=C/C(=O)O)sc(C)c1-c1ccc(C(C)C)cc1 | active: 12.6 µM | 
29 | COc1cccc(/C=N/NC(=O)c2c(C)nc3ccc(Br)cn23)c1O |  | inactive: -15.5%
30 | CCN1/C(=C/C=C/c2oc3ccc(-c4ccccc4)cc3[n+]2CC)Oc2ccc(-c3ccccc3)cc21 | inconclusive [activator, partial curve] | 
31 | Cc1ccc([N+](=O)[O-])cc1S(=O)(=O)NCCc1c(C)[nH]c2ccccc12 |  | inactive: -13.4%
32 | CCOC(=O)c1c(-c2ccc(C)s2)csc1NC(=O)c1ccco1 | active: 7.94 µM | 
33 | O=C(NC(=S)N1CCN(C/C=C/c2ccccc2)CC1)c1ccc(Cl)nc1 | inconclusive [activator, single point] | 
34 | COc1ccc(N2C(=O)CSC23CCC(C(C)(C)C)CC3)cc1 (stereo not given) | inconclusive [inhibitor, single point] | 
35 | CN(C(=O)CSc1nc2cc(Cl)ccc2c(=O)n1Cc1ccco1)C1CCS(=O)(=O)C1 (stereo not given) |  | inactive: -21.1%
36 | CCOC(=O)C1CCCN(c2nc3ccccc3nc2C(C#N)C(=O)OC(C)C)C1 (stereo not given) | inconclusive [inhibitor, single point] | 
37 | COc1cccc(CN(C(=O)Cc2c[nH]c3ccccc23)C(C(=O)NC2CCCCC2)c2ccc(C)o2)c1 (stereo not given) |  | inactive: -35.8%
38 | CCOC(=O)c1c(-c2ccc(C)cc2)csc1NC1=NS(=O)(=O)c2ccccc21 | inconclusive [inhibitor, single point] | 
39 | COCCN(C(=S)Nc1ccc(C)c(C)c1)C(C)c1ccco1 (stereo not given) | inconclusive [inhibitor, single point] | 
40 | COCCn1nnnc1CN1CCN(c2cccc(C(F)(F)F)c2)CC1 | inconclusive [inhibitor, partial curve, poor fit] | 
41 | CC(C)(C)n1nnnc1C(c1ccccc1F)N(Cc1ccco1)CC1CCCO1 (stereo not given) | inconclusive [inhibitor, single point] | 
42 | O=C1c2ccccc2NC(c2ccc(F)cc2)N1Cc1ccco1 (stereo not given) |  | inactive: -20.6% [at 46.1 µM]
43 | CCOc1cc(C)c(C(C)C)cc1S(=O)(=O)n1ccc(C)n1 | inconclusive [inhibitor, single point] | 
44 | O=C(COC(=O)COc1cccc2ccccc12)NCC(F)(F)F |  | inactive: 11.5%
45 | Cc1ccc(Nc2c3c(nc4ccccc24)CCC3)cc1 | inconclusive [activator, partial curve] | 
46 | CCN(CC)S(=O)(=O)c1ccc(NC(=O)CCC2CCCCC2)cc1 | inconclusive [inhibitor, partial curve, poor fit] | 
47 | Cn1cccc1-c1nc2ccccc2[nH]1 | inconclusive [activator, single point] | 
48 | CC(C)Cn1c(SCC(=O)N2CCCc3ccccc32)nc2ccccc2c1=O | inconclusive [inhibitor, single point] | 

Row | Structure (SMILES) | Potency | activity change, negative = inhibition
49 | Cc1nc(Nc2ccccc2)sc1C |  | inactive: -5.34%
50 | COc1ccc(OC)c(-c2cc(C(=O)NCc3cccs3)no2)c1 | inconclusive [inhibitor, single point] | 
51 | COc1ccc2c(Cl)c(C(N)=O)sc2c1 | inconclusive [activator, partial curve] | 
52 | CCN(CC)CCNc1ncnc2c1[nH]c1ccc(OC)cc12 | inconclusive [inhibitor, full curve, poor fit] | 
53 | CC1(C)Cc2ccccc2-c2nnc(SCC(=O)Nc3nc4ccccc4s3)n21 | inconclusive [inhibitor, single point] | 
54 | N#CCC1c2ccccc2CCN1C(=O)Nc1cccc(C(F)(F)F)c1 (stereo not given) | inconclusive [inhibitor, single point] | 
55 | COCCn1c(-c2ccc(Br)cc2)csc1=Nc1cccnc1 | inconclusive [inhibitor, single point] | 
56 | COc1ccc(NC(=O)CSc2nnc(-c3ccoc3C)n2CC2CCCO2)cc1 (stereo not given) | inconclusive [inhibitor, partial curve] | 
57 | CN(C(=O)CSc1nc(-c2ccccc2)cn1N)C(c1ccccc1)c1ccccc1 | inconclusive [inhibitor, single point] | 
58 | COC(=O)C(=Cc1ccc(-c2ccsc2C(=O)OC)o1)C(=O)OC | inconclusive [activator, partial curve] | 
59 | O=C(c1ccc(CSc2nc3ccncc3[nH]2)cc1)N1CCN(c2cccc(Cl)c2)CC1 |  | inactive: -15.7%
60 | CCCOc1ccc([C@@H]2C3CN(C(=O)OCC)CC=C3C(C#N)=C(N)C2(C#N)C#N)cc1OC (stereo not given in full) |  | inactive: -13.7% [at 46.1 µM]
61 | CC1(C)CC(=O)C2=C(C1)N1C(=C(C#N)C2c2ccc(Cl)cc2)N=C(N)c2ccccc21 (stereo not given) | inconclusive [inhibitor, single point] | 
62 | Cc1cc(-c2csc(N)n2)c(C)n1CCC(C)C | inconclusive [inhibitor, single point] | 
63 | CCCc1nc(Nc2nc3ccccc3o2)nc(C)c1C(=O)OCC | inconclusive [inhibitor, full curve, poor fit] | 
64 | Cc1nn(-c2ccccc2)c(N)c1C(c1ccc(C(C)C)cc1)c1c(C)nn(-c2ccccc2)c1N | inconclusive [inhibitor, single point] | 
65 | COc1cc(C(=S)N2CCCC2)cc(OC)c1OS(=O)(=O)c1ccc(NC(C)=O)cc1 |  | inactive: 1.32%
66 | COC(=O)c1[nH]c2ccccc2c1NC(=O)CN1CCCc2ccccc21 | inconclusive [inhibitor, single point] | 
67 | O=C(N/N=C/c1c[nH]c2ccccc12)c1cc(-c2ccc(-c3ccccc3)cc2)n[nH]1 | inconclusive [inhibitor, single point] | 
68 | CCOC(=O)c1cc(-c2ccc(OC)cc2)n(CCC(=O)NC2CCN(Cc3ccccc3)CC2)c1C | inconclusive [inhibitor, single point] | 
69 | Clc1ccc(-c2n[nH]c3c2CCC3)cc1Cl | inconclusive [activator, single point] | 
70 | COc1cccc(-c2cc(C(F)(F)F)n3ncc(C(=O)NCC4CCCO4)c3n2)c1 (stereo not given) | inconclusive [inhibitor, full curve, poor fit] | 
